PubChem BioAssay AID2451 (National Center for Advancing Translational Sciences (NCATS), 2010)
Among all 290,000 compounds or so, about 2,100 (0.72%) were called active. This list was built around the results that the source calls inconclusive (neither active nor inactive); the mix of calls is not that of the screen. Calls come from the whole dose curve; as a rule, active = well fitted inhibition curve with a large enough effect; inconclusive = small, poorly fitted or top-dose-only effect, or effect the other way; inactive = flat fitted curve, though single readings scatter. A potency beside an inconclusive call is a rough fit, not a confirmed value.

Each molecule was assayed against Fructose-bisphosphate aldolase (Giardia intestinalis (strain ATCC 50803 / WB clone C6)) (UniProt A8B2U2) (assay: qHTS Assay for Inhibitors of Fructose-1,6-bisphosphate Aldolase from Giardia Lamblia). Details: purified Giardia FBPA; series mostly up to 59.6 µM.
Text: Assay Provider: Osnat Herzberg, University of Maryland
The objective of this project is to obtain compounds that inhibit Giardia lamblia growth. G. lamblia is a human pathogen which afflicts impoverished nations; it is the most common cause of outbreaks of diarrhea in the United States. During the course of our study of potential drug targets in Giardia, we have identified the Class II (Zn2+ functions in electrophilic catalysis) fructose-1,6-bisphosphate aldolase (FBPA) as an excellent candidate for drug targeting. FBPA is a key glycolytic pathway enzyme, essential for G. lamblia survival. The human FBPA belongs to the Class I aldolases, which have a different substrate binding site structure and a radically different catalytic mechanism (employing a lysine-Schiff base intermediate). Therefore, affinity-based or mechanism-based inhibitors of the Giardia FBPA are expected not to interfere with the catalytic function of the human FBPA.
A glyceraldehyde-3-phosphate dehydrogenase/triose phosphate isomerase/NAD/arsenate coupled assay was adapted to the 1536-well HTP format for use in the primary screen. This was done by coupling it to a diaphorase/resazurin/resorufin reaction that can be monitored by fluorescence (excitation, 544 nm; emission, 590 nm). Compounds identified in this screen will be further evaluated by coupling the glycerol-3-phosphate/triose phosphate isomerase/NADH assay to a phenazine methosulfate/tetranitroblue tetrazolium color reaction. False positives due to the dehydrogenases and diaphorase inhibition will be eliminated, and selectivity assay will triage inhibitors of mammalian triose phosphate isomerase and the Class I FBPA. G. lamblia FBPA inhibitors identified by the in vitro analyses will be examined for growth inhibition of Giardia trophozoites, and for cytotoxicity in human cells.
Step,Parameter,Value,Description
1,Enzyme reagent,2 uL,40 nM FBPA
2,Compound,23 nL,3.68 nM-57.5 uM final concentration
3,Time,10 min,RT Incubation
4,Substrate/detection Reagent,2 uL,Substrate + enzyme coupling system + AmpLite Red kit
5,Time,20 min,RT Incubation
6,Detector,525 nm/598 nm (Fluorescence),ViewLux Fluorescence Read (Read 1)
1,Medium-binding black solid-bottom Kalypsys plates. FRD or Kalypsys dispenser, 2 uL of FBPA enzyme. Bottle kept at 4C.
2,Compound Library (10 mM ,1:5 dilution). Pin-transferred for a [final] range of 3.68 nM-57.5 uM.
4,FRD or Kalypsys dispenser, 2 uL of reaction mixture. Bottle kept at 4C and covered in foil to protect from light.
6,ViewLux Protocol 1194; Excitation filter wheel A (525/20 Pol; BODIPY TMR FP), Emission filter wheel B (598/25 S; BODIPY TMR FP S).
Keywords: Fructose-bisphosphate aldolase, FBPA , Giardia lamblia , Giardia, HTS, Inhibitors
Note: nearly all actives have a fitted effect of over 55% in size.
Potency is the fitted concentration of half-maximal effect; tags give direction and shape of the fitted curve.

Chain of UniProt A8B2U2 (A8B2U2 whole entry, looked up): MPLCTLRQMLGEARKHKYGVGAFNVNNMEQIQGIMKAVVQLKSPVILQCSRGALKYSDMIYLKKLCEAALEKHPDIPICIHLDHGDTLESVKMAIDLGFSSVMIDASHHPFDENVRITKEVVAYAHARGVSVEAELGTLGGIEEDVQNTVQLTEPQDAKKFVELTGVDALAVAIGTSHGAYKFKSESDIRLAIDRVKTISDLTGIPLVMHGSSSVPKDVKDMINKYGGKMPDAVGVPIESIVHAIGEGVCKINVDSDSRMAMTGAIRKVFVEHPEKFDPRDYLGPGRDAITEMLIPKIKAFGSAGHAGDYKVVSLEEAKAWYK

Compound | Potency
CS(=O)(=O)c1nc(-c2ccccc2)c(-c2ccccc2)[nH]1 | inconclusive: 3.97 µM [inhibitor, single point]
COc1ccc(-c2cc(C(F)(F)F)n3nc(C(=O)NCCCN4CCOCC4)cc3n2)cc1 | inactive
CC/C(=N\NC(=O)c1cc(C)nc2ccccc12)c1ccc(C)s1 | inactive
Cc1cc([N+](=O)[O-])c2ccccc2[n+]1[O-] | inconclusive: 22.3 µM [inhibitor, partial curve]
Cc1cc(NC(=O)c2ccc(C)s2)n(-c2nc3ccccc3[nH]2)n1 | inconclusive: 17.7 µM [activator, single point]
Cc1cccc(NC(=S)NNC(=O)c2ccccc2OC(F)F)c1 | inconclusive: 17.7 µM [activator, single point]
O=C(O)CSc1cccc2cccnc12 | inconclusive: 17.7 µM [inhibitor, partial curve]
CC(=O)C1=C(C)OC2(O)c3ccccc3C(=O)C12O (stereo unspecified) | inconclusive: 8.89 µM [inhibitor, partial curve]
COc1ccc(Cn2c3nc4ccccc4nc3c3c(=O)n(Cc4ccco4)c(C)nc32)cc1 | inconclusive: 15.8 µM [inhibitor, partial curve]
COc1ccccc1C(=O)N1CCN(CCc2ccccc2)CC1 | inactive
Clc1ccc(OCc2nnc(SCc3nnc(-c4ccccc4)o3)o2)c(Cl)c1 | inactive
Cc1nnc(C)c2c(C)n(-c3cccc4cccnc34)c(C)c12 | inconclusive: 15.8 µM [inhibitor, partial curve]
CC(C)C[C@H]1C(=O)N2CCC[C@@H]2[C@@]2(O)O[C@](NC(=O)[C@@H]3C=C4c5cccc6[nH]cc(c56)C[C@@H]4N(C)C3)(C(C)C)C(=O)N12 | inconclusive: 6.29 µM [inhibitor, partial curve]
Cc1cccc(OCCSc2nnc(-c3ccoc3C)n2C)c1 | inactive
O=C(CSCc1ccc(F)cc1)Nc1ccccc1 | inactive
CC(C)NC[C@@H](O)c1ccc(O)c(O)c1 | active: 7.06 µM
C[C@@H](Oc1ccc(Oc2cnc3ccc(Cl)cc3n2)cc1)C(=O)O | inactive
CCOCCCNC(=O)C1(O)c2ccccc2NC(=O)N1c1ccc(Cl)cc1 (stereo unspecified) | inactive
COc1ccc(N/C=C2\CCc3ccccc3C2=O)cc1 | active: 11.2 µM
Cc1nc2ccccc2nc1N/N=C/c1ccc(O)cc1 | inactive
COCCOc1ccc(C(F)(F)F)cc1NC(=O)c1ccccc1 | inactive
COc1ccc2c(c1)c(-c1csc(N)n1)c(C)n2C | inconclusive: 17.8 µM [inhibitor, partial curve]
CCOC(=O)c1c(Cc2cccc(Cl)c2)c[nH]c1C | inactive
CCc1nnc(NC(=O)CN2CC(C)OC(C)C2)s1 (stereo unspecified) | active: 3.55 µM
c1csc(CNc2ccc3c(c2)OCCO3)c1 | inconclusive: 4.46 µM [inhibitor, full curve]
Cn1c(S(=O)(=O)Cc2ccc(Cl)cc2)nc2ccccc21 | inconclusive: 19.9 µM [inhibitor, partial curve]

Compound | Potency
Cc1ccccc1NC(=O)CSc1nnc(-c2ccco2)c(-c2ccco2)n1 | active: 1.77 µM
O=C1C(NS(=O)(=O)c2ccc(Cl)cc2)=C(N2CCCCC2)C(=O)c2ccccc21 | inconclusive: 11.2 µM [inhibitor, partial curve]
CCN(CC)C(=O)C1CCCN(Cc2cccc(Oc3ccccc3)c2)C1 (stereo unspecified) | inconclusive: 15.8 µM [inhibitor, single point]
CCOC(=O)COc1nc(-c2ccc(C)cc2)cc(-c2ccco2)c1C#N | inactive
O=[N+]([O-])C1=CC=C2C(=NC3(CCCCC3)N2O)C1=NCCc1ccccc1 | inconclusive: 1.77 µM [inhibitor, full curve]
O=Nc1[nH]c(=O)c(/C=C(\O)c2ccccc2)nc1NO | inconclusive: 15.8 µM [activator, partial curve]
Cc1cc(=O)oc2cc(OCC(=O)N3CCCC(C)C3)ccc12 (stereo unspecified) | inactive
COc1ccc(-n2nc(C(=O)NCC(=O)N3CCOCC3)c3ccccc3c2=O)cc1OC | inactive
CCC(CC)c1ncc[nH]1 | inconclusive: 35.5 µM [inhibitor, partial curve]
COc1cccc(CNc2ccccc2O)c1OCc1ccccc1F | inconclusive: 15.8 µM [inhibitor, partial curve]
COc1cc(S(=O)(=O)n2cnc3ccccc32)ccc1Br | inconclusive: 25.1 µM [inhibitor, partial curve]
CC(C)NCc1cccc([N+](=O)[O-])c1 | inactive
Cc1cc(/C=N/NC(=O)CC2(C)OCCO2)c(C)n1-c1ccc(Cl)c(Cl)c1 | inconclusive: 17.7 µM [inhibitor, single point]
Cc1ccc(-n2cccc2C(=O)NS(=O)(=O)c2ccc(C)cc2)cc1 | inconclusive: 15.8 µM [activator, partial curve]
Cc1nccn1CC(=O)N/N=C/c1ccc(O)c(O)c1 | inconclusive: 22.3 µM [inhibitor, single point]
CN(C)N1C(N)=C(C#N)C(c2cccs2)C2=C1CC(C)(C)CC2=O (stereo unspecified) | active: 17.7 µM
COc1ccc(C(=O)NNC(=S)NC(=O)c2cc(-c3ccccc3)nc3ccccc23)cc1 | inconclusive: 17.7 µM [activator, single point]
CC(C)(C)c1cc(N)on1 | inactive
CC1(C)OC1COc1c2occc2cc2ccc(=O)oc12 (stereo unspecified) | inconclusive: 17.7 µM [inhibitor, partial curve]
Cc1ncoc1C(=O)N1CCc2c([nH]c3ccccc23)C1C(C)(C)C (stereo unspecified) | inactive
COc1ccc(C(=O)C2CCCN(C(=O)CCc3scnc3C)C2)c(C)c1 (stereo unspecified) | inconclusive: 1.77 µM [inhibitor, partial curve]
Cn1c(=O)n(C)c2cc(NC(=O)c3ccccc3NS(C)(=O)=O)ccc21 | inconclusive: 35.5 µM [inhibitor, single point]
S=C(Nc1ccccc1)Nc1ccc2cn[nH]c2c1 | inconclusive: 7.92 µM [inhibitor, partial curve]
NC(=S)Nc1cccc(-c2n[nH]c(=S)o2)c1 | inconclusive: 19.9 µM [inhibitor, partial curve]
Cc1cccc(CNc2cc(-c3c(C)noc3C)ncn2)c1 | inactive
COc1ccc(C2(CNC(=O)/C=C/c3ccco3)CCCC2)cc1OC | inactive

Compound | Potency
COc1ccc(CNc2ncnc3cc(Cl)ccc23)cc1OC | inactive
c1ccc(-c2nc(-c3ccncc3)no2)cc1 | inactive
O=C(CNCc1ccco1)Nc1cc(S(=O)(=O)N2CCOCC2)ccc1N1CCCC1 | inconclusive: 17.7 µM [inhibitor, partial curve]
COc1cccc(NC(=O)C(OC(=O)c2ccccc2NS(=O)(=O)c2cccs2)c2ccccc2)c1 (stereo unspecified) | inconclusive: 17.7 µM [inhibitor, single point]
COC1=C(Nc2ccc(OC)cc2)C(=O)c2ccccc2C1=O | inconclusive: 7.06 µM [inhibitor, partial curve]
CCOC(=O)C1CCN(C/C=C/c2ccccc2)CC1 | inconclusive: 14.1 µM [inhibitor, partial curve]
O=c1cc(-c2ccc(O)c(O)c2)oc2cc(OC3OC(CO)C(O)C(O)C3O)cc(O)c12 (stereo unspecified) | inconclusive: 44.6 µM [inhibitor, single point]
COc1ccccc1C(=O)NNC(=S)NC(=O)c1ccco1 | inconclusive: 25.1 µM [activator, single point]
CC(C)C1C(=O)N2CCCC2[C@]2(O)O[C@@](NC(=O)[C@@H]3C=C4c5cccc6[nH]cc(c56)C[C@H]4N(C)C3)(C(C)C)C(=O)N12 (stereo partly specified) | inconclusive: 9.98 µM [inhibitor, full curve]
CC1=NN(c2ccc(C(=O)O)c(N)c2)C(=O)C1 | active: 7.06 µM
O=S(=O)(c1ccccc1)N1CCN=C1SCc1cccnc1 | inconclusive: 15.8 µM [inhibitor, partial curve]
COC(=O)Cc1cc(=O)n2[nH]c(C)c(-c3ccccc3)c2n1 | inconclusive: 14.1 µM [inhibitor, partial curve]
Cc1ccc(C)c(N2CCN(C(=O)C3CCCN(c4ncnc5c4nc4n5CCCCC4)C3)CC2)c1 (stereo unspecified) | inactive
NS(=O)(=O)c1ccc(CCNCc2cc(Br)ccc2OCc2ccccc2F)cc1 | inactive
C=CCNc1nnc(Cl)c2ccccc12 | inconclusive: 11.2 µM [inhibitor, partial curve]
O=C(Oc1c(Br)cc([N+](=O)[O-])cc1Br)c1cccnc1 | inconclusive: 28.1 µM [activator, single point]
CCN(CC)C(=S)SCC(=O)c1ccc(F)cc1 | inactive
COc1ncc2nc(-c3ccc(F)cc3)c(=O)n(C[C@H]3CCCO3)c2n1 | inactive
COc1ccc(S(=O)(=O)N(C)CC(=O)Nc2ccc3c(c2)OCO3)cc1OC | inactive
N#CC(=C1Nc2ccccc2N1)S(=O)(=O)c1ccccc1 | inconclusive: 6.29 µM [inhibitor, partial curve]
CCc1ccc(C2CC(=O)N3CN(c4ccccc4)CSC3=C2C#N)cc1 (stereo unspecified) | inconclusive: 3.54 µM [inhibitor, full curve]
CCCCCc1cc(=O)[nH]c(=S)[nH]1 | inconclusive: 12.6 µM [inhibitor, partial curve]
NC(=O)C1(N2CCCCC2)CCN(c2nc(-c3ccc(Br)cc3)cs2)CC1 | inactive
Cc1cc(/C=N/NC(=O)C(O)(c2ccccc2)c2ccccc2)c(C)n1-c1cccc(C(=O)O)c1 | inconclusive: 19.9 µM [inhibitor, single point]
